According to the supplement of paper PMC10126150:
Values marked as one replicate rest on one cluster of the flow cell; about a third of the high ones do not repeat.

System: ATP
Assay: switch fluorescence ratio, 500 uM ATP over buffer (Cy3 cluster intensity, sum of 5 cycles each) (fold (ratio)); higher = stronger signal-on switching upon ATP binding; sequences stand for … in TCGTCGGCAGCGTCAGATGTGTATAAGAGACAGTTTTTTTTTTTTTTTTTTTTTTTTT…TC
Details: aptamer strand: ATP DNA aptamer (quencher-CACCTGGGGGAGTATTGCGGAGGAAGG + anchor), 100 nM annealed; ATP concentration: 500 uM; one replicate
How it was run: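 For every switch-domain sequence, the fluorescence ratio is the mean of per-cluster values, each being summed target-cycle Cy3 intensity over summed buffer-cycle Cy3 intensity. Clusters outside 100-1000 RFU were excluded. On a modified Illumina MiSeq flow-cell, the Cy3-labelled switching-strand clusters were annealed to 100 nM quencher-labelled ATP aptamer, imaged in selection buffer and then after 15 min with 500 uM ATP at 22 °C. Five such cycles were run, with NaOH stripping and re-annealing between them.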
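Further: ATP exposure 15 min at 22 °C before imaging.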

Sequence | switch fluorescence ratio
CCAGGGTTCT | 1.01
CGACGATGTA | 1.13
TTGGACTTCC | 1.24
CTCAACGATG | 1.02
CCGATGCCTT | 2.08
GAGTACTACC | 1.06
GTGTAGATAT | 0.994
GATGATGACT | 0.986
CGCATGTGTA | 0.997
AAAATCTCGC | 1.01
TGGGAAACGA | 1.01
ATGGGAGAAC | 1.03
GATACATGGT | 1.01
GAGAATATT | 0.995
TCAACCGTGC | 1.56
CAATCTAGAG | 1.02
GATTGCAACA | 1.01
TGTGCAAGTT | 0.963
TAGCTGG | 0.97
ACGGGCGGAA | 0.979
AAGGCAATAT | 3.35
GCATCGAATT | 1.07
GGCGCCACAG | 1.02
CGCTAGCTGA | 1.01
GAAAGTAGAC | 1.02
GATAATTGTG | 0.944

Sequence | switch fluorescence ratio
GCAGGTATAG | 1.02
ATATGTGAAG | 1.02
GAGAAATGAG | 1.01
TCAGTCACAA | 0.997
TCCTTTGTA | 1.08
TGGGAGGATC | 1.05
ACGATAGATC | 1.03
TAATAGCGTT | 0.99
TTAGCGGAGG | 0.977
ATACGGCAGT | 1.03
TCGAAATGGC | 1.14
CAGGCAGGT | 0.997
AGGGAGGATA | 1.01
GGCGTCGGG | 1.04
GGCAGGGAAA | 1.01
CTGAAATGCG | 1.09
CCGGTCTTCT | 1.06
TACACCTAGA | 1.1
GGTCTAGGGA | 0.993
TCCCAGCAGC | 3.21
GCGGCGGTCT | 1.11
TGACGGGCTG | 1.01
GGCCGTCCTT | 0.967
TTCTTAAAT | 1.03
CTCAGGTGAC | 1.65
TACACTATCT | 1.02

Sequence | switch fluorescence ratio
TCAGAGGCGA | 1.26
ACTGGGCGAC | 1.01
TTCCTTGATT | 1.03
CTTGCTGCAG | 0.984
AGACGGATGG | 1.01
TTACCGCGAG | 0.994
ACCTTTGTAG | 1.04
CGTCGAAATC | 1.29
GGAAGTTCGT | 0.959
ACGGTTCGTT | 0.95
GCCTCTGGGA | 1.04
TTCCGGAGTT | 1.19
AGAATGAAGA | 0.992
ACTGTTAATT | 1.06
GCATTACCAA | 1.08
TGTCGGAATT | 0.972
ATCGCACTTG | 1.1
TGTCGGGGTC | 1
CGGCGGAGAG | 0.966
CTATGGGGG | 0.997
TTGAAATTGC | 1.01
AGAATGACAG | 0.982
CTGGGTACCC | 1.03
GTCTACGTAC | 1.56
GTGTTCCTCA | 1.02
GATGGAACC | 1.05

Sequence | switch fluorescence ratio
TGCGTAAAAG | 1.03
GACATTATGA | 1.02
CCAGTGCCAA | 1.11
TAAGATAACC | 0.987
AATAGATTCA | 0.992
AACGACATGA | 1.08
GAGTCTTTTC | 1.01
ATTCTTGGTC | 0.984
TGACAATACG | 1.17
CAGGGGTTCT | 1.01
CGGATGCTCT | 0.974
ATCGAAGTTT | 0.963
GGTTGCTTGG | 0.966
TCTGTTCAGT | 1.02
CCCTTGAAGC | 1.04
TATTAAATCG | 1.02
ATCGATAAGC | 0.973
CTTGCGGGCC | 1.01
TTGTCCTATG | 0.988
GGACTTCAGG | 0.95
CTTATTTGAG | 0.99
TTTGACTGAA | 1.03
CATTGGAGCT | 1.07
CGCACTGAGG | 0.978
AATTTTACAG | 0.992
AGCACAAGGC | 1.09

Sequence | switch fluorescence ratio
ATCCGAACCC | 1.11
TTTTATGCCG | 1.04
AAGTGTCGCG | 1.03
GCGGATGCCA | 1.01
GGAGAAGGGC | 0.956
GTTCAGATGT | 1.05
ACCGATATTG | 1.02
TGACTCCTCA | 1
CTTACAGTTC | 0.995
AGCGAGTTAA | 0.993
GAACTAAGAG | 0.982
ATCTCTAGAT | 0.994
AAACGTAC | 1.92
CCCCATGGC | 1.36
TCAATCTCGT | 1.01
GGGGCCCTAT | 0.99
TGGGGAAGA | 0.908
GTCTTTCATA | 0.975
AGGCATCAGG | 1
CTCATCATGT | 0.941
GGCACATATA | 1
GCCGGTAATA | 1.02
AAGTCGGTCA | 0.989
ACATTAACTG | 1.1
CTACCGCATG | 3.27
AGCCGTAT | 1.05

Sequence | switch fluorescence ratio
AGTCAGTTG | 1
TACGCTGTCC | 1.1
GCTTCGCACT | 1.84
AGTTGGGAAT | 1.01
CTGTGAAGCG | 0.962
AATGCAAACC | 1.16
GTGTTATTCC | 0.994
AATGAGCGTA | 1.06
TAAGGACTTT | 0.996
TAATGGATCC | 0.989
GGAACAGCCA | 0.98
GGGACGGAG | 1.02
TTAGACTAGC | 1.03
CTTCGAGGAA | 1.15
CCCGGTAGCG | 1.02
AATTTTATAG | 0.99
GTGATATTCG | 0.925
GTTAGGGTGG | 0.984
TGCCGTAGGA | 1.04
GTTCGCCGCG | 0.965
TAAATCGTGT | 1.06
GGGGTTAGCA | 1.03
CATTGCGGCT | 1.05
